Counter-ions that a name gives are not always drawn. Some of the results follow. Most values come without repeats; read them as rough.

One experiment has as its system Ov4Carbo. Kind of experiment: log2 surviving fraction relative to plate median (drug vs vehicle, or drug+dl922-947 vs dl922-947 alone); ovarian cancer lines: OVCAR4 is platinum-sensitive while Ov4Cis resists cisplatin and Ov4Carbo carboplatin; higher = more cell survival. Conditions: dl922-947 oncolytic adenovirus co-treatment: none; compound concentration: 10 uM; 192 h.
Regarding `Clc1ccc(CSC(Cn2ccnc2)c2ccc(Cl)cc2Cl)cc1` (stereo not given) [Sulconazole Nitrate], the log2 surviving fraction is -3.87. As to `CC(C)(O)c1ccccc1CC[C@@H](SCC1(CC(=O)O)CC1)c1cccc(/C=C/c2ccc3ccc(Cl)cc3n2)c1` [Montelukast Sodium], the log2 surviving fraction was -0.0383. In the case of `CC(C)CN(C[C@@H](O)[C@H](Cc1ccccc1)NC(=O)O[C@H]1CO[C@H]2OCC[C@H]21)S(=O)(=O)c1ccc(N)cc1` [Darunavir Ethanolate (Prezista)], the log2 surviving fraction was 0.453. The same measure, in the same setting: the value for `CN1C[C@@H]2C[C@H]1CN2c1cc2c(cc1F)c(=O)c(C(=O)O)cn2C1CC1` [Danofloxacin Mesylate] was -1.69. Consider `CC(=O)O[C@H]1C(=O)[C@@]2(C)[C@H]([C@H](OC(=O)c3ccccc3)[C@]3(O)C[C@H](OC(=O)[C@H](O)[C@@H](NC(=O)c4ccccc4)c4ccccc4)C(C)=C1C3(C)C)[C@]1(OC(C)=O)CO[C@@H]1C[C@@H]2O` [Paclitaxel (Taxol)], for which the log2 surviving fraction was -8.1. In the case of `CC[C@]1(O)C[C@@H]2CN(CCc3c([nH]c4ccccc34)[C@@](C(=O)OC)(c3cc4c(cc3OC)N(C)[C@H]3[C@@](O)(C(=O)OC)[C@H](OC(C)=O)[C@]5(CC)C=CCN6CC[C@]43[C@@H]65)C2)C1` [Vinblastine], the log2 surviving fraction is -0.97.

On to `COC(=O)C1=C(C)NC(C)=C(C(=O)OCC(C)C)C1c1ccccc1[N+](=O)[O-]` (stereo not given) [Nisoldipine (Sular)], for which the log2 surviving fraction was -3.43. The same measure, in the same setting: then `Nc1c2c(nc3ccccc13)CCCC2` [Tacrine HCl], with -0.731; and `COc1cc(C(C)=O)ccc1OCCCN1CCC(c2noc3cc(F)ccc23)CC1` [Iloperidone (Fanapt)], with 0.265. `CCOC(=O)c1cncn1[C@H](C)c1ccccc1` [Etomidate]: the log2 surviving fraction is -0.433. On the same count and under the same terms, the value for `CCCCN(CCCC)CCCOC(=O)c1ccc(N)cc1` [Butacaine] was -0.128; that for `CCCCc1ncc(/C=C(\Cc2cccs2)C(=O)O)n1Cc1ccc(C(=O)O)cc1` [Eprosartan Mesylate] was -0.341.

As to `Cc1ncc([N+](=O)[O-])n1CC(C)O` (stereo not given) [Secnidazole (Flagentyl)], the log2 surviving fraction is -0.559. In the case of `O=c1cc[nH]c(=S)[nH]1` [2-Thiouracil], the log2 surviving fraction was 0.534.

As to `Cc1cc(C#N)cc(C)c1Oc1nc(Nc2ccc(C#N)cc2)nc(N)c1Br` [Etravirine (TMC125)], the log2 surviving fraction is -3.73. Turning to `CCOC(=O)N1CCC(=C2c3ccc(Cl)cc3CCc3cccnc32)CC1` [Loratadine], the log2 surviving fraction worked out at 0.251. On to `Cc1nnc(NS(=O)(=O)c2ccc(N)cc2)s1` [Sulfamethizole (Proklar)], for which the log2 surviving fraction worked out at 0.808. As for `CC(C)(C)NC(=O)[C@H]1CC[C@H]2[C@@H]3CC[C@H]4NC(=O)C=C[C@]4(C)[C@H]3CC[C@]12C` [Finasteride], the log2 surviving fraction was determined as 1.76. Regarding `CN(C)C(=O)C(CCN1CCC(O)(c2ccc(Cl)cc2)CC1)(c1ccccc1)c1ccccc1` [Loperamide hydrochloride], the log2 surviving fraction is -7.27. In the case of `O=C(N[C@H](CO)[C@H](O)c1ccc([N+](=O)[O-])cc1)C(Cl)Cl` [Chloramphenicol (Chloromycetin)], the log2 surviving fraction is -1.05. `CCCCOc1cc(C(=O)NCCN(CC)CC)c2ccccc2n1` [Dibucaine HCL]: the log2 surviving fraction is -0.232. For `CCCCCCCN(CC)CCCC(O)c1ccc(NS(C)(=O)=O)cc1` (stereo not given) [Ibutilide fumarate], the log2 surviving fraction is -0.502. Same read-out and setting: then `CC(C)C[C@H](NC(=O)[C@H](CCc1ccccc1)NC(=O)CN1CCOCC1)C(=O)N[C@@H](Cc1ccccc1)C(=O)N[C@@H](CC(C)C)C(=O)[C@@]1(C)CO1` [Carfilzomib (PR-171)], with -12.3; and `Nc1nc(CC(=O)Nc2ccc(CCNC[C@H](O)c3ccccc3)cc2)cs1` [Mirabegron (YM178)], with 0.353.

For `CN1CCN(C2=Nc3cc(Cl)ccc3Nc3ccccc32)CC1` [Clozapine (Clozaril)], the log2 surviving fraction came out at 1.34.

As to `N=C(N)c1ccc(OCCCCCOc2ccc(C(=N)N)cc2)cc1` [Pentamidine], the log2 surviving fraction was -9.21. In the case of `Cc1cccc(Nc2ccccc2C(=O)O)c1C` [Mefenamic acid], the log2 surviving fraction was -0.222.

Consider `CCN(CC)CCOC(=O)C1(C2CCCCC2)CCCCC1` [Dicyclomine HCl], for which the log2 surviving fraction is -1.35. In the case of `O=C(C1CCCCC1)N1CC(=O)N2CCc3ccccc3C2C1` (stereo not given) [Praziquantel (Biltricide)], the log2 surviving fraction was -0.0872.

For a further experiment, the system named is Ov4Cis. The experiment is described as above. As to conditions: dl922-947 oncolytic adenovirus co-treatment: MOI 10; compound concentration: 10 uM; 192 h.
In the case of `CC1CNc2c(cccc2S(=O)(=O)N[C@@H](CCCNC(=N)N)C(=O)N2CC[C@@H](C)C[C@@H]2C(=O)O)C1` (stereo not given in full) [Argatroban], the log2 surviving fraction was 1.02.

As to `O=c1c(-c2ccc(O)cc2)coc2cc(O)ccc12` [Daidzein], the log2 surviving fraction is 0.271. Regarding `COc1cc2nc(N3CCN(C(=O)C4CCCO4)CC3)nc(N)c2cc1OC` (stereo not given) [Terazosin HCl (Hytrin)], the log2 surviving fraction was determined as 1.47. Take `O=C(O)CCc1nc(-c2ccccc2)c(-c2ccccc2)o1` [Oxaprozin]: the log2 surviving fraction was 0.55.

In the case of `CCC[C@H](NC(=O)[C@@H]1[C@H]2CCC[C@H]2CN1C(=O)[C@@H](NC(=O)[C@@H](NC(=O)c1cnccn1)C1CCCCC1)C(C)(C)C)C(=O)C(=O)NC1CC1` [Telaprevir (VX-950)], the log2 surviving fraction was -0.811. Consider `COC(=O)C1=C(C)NC(C)=C(C(=O)OC)C1c1ccccc1[N+](=O)[O-]` [Nifedipine (Adalat)], for which the log2 surviving fraction was 0.826.

Turning to `COc1ccc2c(c1)C(=O)N(CCc1ccc(S(=O)(=O)NC(=O)NC3CCCCC3)cc1)C(=O)C2(C)C` [Gliquidone], the log2 surviving fraction was 0.375. Turning to `OC(Cn1cncn1)(Cn1cncn1)c1ccc(F)cc1F` [Fluconazole], the log2 surviving fraction was 0.629.

As for `C[C@@H](O)[C@H]1C(=O)N2C(C(=O)O)=C(S[C@@H]3CN[C@H](CNS(N)(=O)=O)C3)[C@H](C)[C@H]12` [Doripenem Hydrate], the log2 surviving fraction was 0.208.

For `CN1[C@@H]2C[C@@H](OC(=O)[C@H](CO)c3ccccc3)C[C@H]1[C@@H]1O[C@@H]12` [Scopolamine hydrobromide], the log2 surviving fraction was determined as 0.667. For `CCCCCCOC(=O)NC(=N)c1ccc(NCc2nc3cc(C(=O)N(CCC(=O)OCC)c4ccccn4)ccc3n2C)cc1` [BIBR-1048 (Dabigatran)], the log2 surviving fraction was -2.28. For `Clc1ccc(CSC(Cn2ccnc2)c2ccc(Cl)cc2Cl)cc1` (stereo not given) [Sulconazole Nitrate], the log2 surviving fraction is -0.84.

For `CC(C)(O)c1ccccc1CC[C@@H](SCC1(CC(=O)O)CC1)c1cccc(/C=C/c2ccc3ccc(Cl)cc3n2)c1` [Montelukast Sodium], the log2 surviving fraction was determined as 0.146.

Turning to `CC(C)CN(C[C@@H](O)[C@H](Cc1ccccc1)NC(=O)O[C@H]1CO[C@H]2OCC[C@H]21)S(=O)(=O)c1ccc(N)cc1` [Darunavir Ethanolate (Prezista)], the log2 surviving fraction is -0.506.

On to `CN1C[C@@H]2C[C@H]1CN2c1cc2c(cc1F)c(=O)c(C(=O)O)cn2C1CC1` [Danofloxacin Mesylate], for which the log2 surviving fraction was 0.0401. Consider `CC(=O)O[C@H]1C(=O)[C@@]2(C)[C@H]([C@H](OC(=O)c3ccccc3)[C@]3(O)C[C@H](OC(=O)[C@H](O)[C@@H](NC(=O)c4ccccc4)c4ccccc4)C(C)=C1C3(C)C)[C@]1(OC(C)=O)CO[C@@H]1C[C@@H]2O` [Paclitaxel (Taxol)], for which the log2 surviving fraction is -4.42. Take `CC[C@]1(O)C[C@@H]2CN(CCc3c([nH]c4ccccc34)[C@@](C(=O)OC)(c3cc4c(cc3OC)N(C)[C@H]3[C@@](O)(C(=O)OC)[C@H](OC(C)=O)[C@]5(CC)C=CCN6CC[C@]43[C@@H]65)C2)C1` [Vinblastine]: the log2 surviving fraction was -0.00901. On the same count and under the same terms, the value for `COC(=O)C1=C(C)NC(C)=C(C(=O)OCC(C)C)C1c1ccccc1[N+](=O)[O-]` (stereo not given) [Nisoldipine (Sular)] was -0.395.

In the case of `Nc1c2c(nc3ccccc13)CCCC2` [Tacrine HCl], the log2 surviving fraction is -0.901.

With `COc1cc(C(C)=O)ccc1OCCCN1CCC(c2noc3cc(F)ccc23)CC1` [Iloperidone (Fanapt)], the log2 surviving fraction is 0.0664. `CCOC(=O)c1cncn1[C@H](C)c1ccccc1` [Etomidate]: the log2 surviving fraction was determined as 0.561. Take `CCCCN(CCCC)CCCOC(=O)c1ccc(N)cc1` [Butacaine]: the log2 surviving fraction worked out at 0.235. With `CCCCc1ncc(/C=C(\Cc2cccs2)C(=O)O)n1Cc1ccc(C(=O)O)cc1` [Eprosartan Mesylate], the log2 surviving fraction stood at 1.29. Consider `Cc1ncc([N+](=O)[O-])n1CC(C)O` (stereo not given) [Secnidazole (Flagentyl)], for which the log2 surviving fraction was -0.502. On the same count and under the same terms, the value for `O=c1cc[nH]c(=S)[nH]1` [2-Thiouracil] was -1.17; that for `Cc1cc(C#N)cc(C)c1Oc1nc(Nc2ccc(C#N)cc2)nc(N)c1Br` [Etravirine (TMC125)] was -2; that for `CCOC(=O)N1CCC(=C2c3ccc(Cl)cc3CCc3cccnc32)CC1` [Loratadine] was 0.0992. For `Cc1nnc(NS(=O)(=O)c2ccc(N)cc2)s1` [Sulfamethizole (Proklar)], the log2 surviving fraction was -0.313. Regarding `CC(C)(C)NC(=O)[C@H]1CC[C@H]2[C@@H]3CC[C@H]4NC(=O)C=C[C@]4(C)[C@H]3CC[C@]12C` [Finasteride], the log2 surviving fraction was determined as 0.762. The same measure, in the same setting: the value for `CN(C)C(=O)C(CCN1CCC(O)(c2ccc(Cl)cc2)CC1)(c1ccccc1)c1ccccc1` [Loperamide hydrochloride] was -4.62; that for `O=C(N[C@H](CO)[C@H](O)c1ccc([N+](=O)[O-])cc1)C(Cl)Cl` [Chloramphenicol (Chloromycetin)] was 0.275. Consider `CCCCOc1cc(C(=O)NCCN(CC)CC)c2ccccc2n1` [Dibucaine HCL], for which the log2 surviving fraction was -1.81. `CCCCCCCN(CC)CCCC(O)c1ccc(NS(C)(=O)=O)cc1` (stereo not given) [Ibutilide fumarate]: the log2 surviving fraction is -0.689. Take `CC(C)C[C@H](NC(=O)[C@H](CCc1ccccc1)NC(=O)CN1CCOCC1)C(=O)N[C@@H](Cc1ccccc1)C(=O)N[C@@H](CC(C)C)C(=O)[C@@]1(C)CO1` [Carfilzomib (PR-171)]: the log2 surviving fraction was -10.1.

As for `Nc1nc(CC(=O)Nc2ccc(CCNC[C@H](O)c3ccccc3)cc2)cs1` [Mirabegron (YM178)], the log2 surviving fraction was -0.296. Same read-out and setting: the value for `CN1CCN(C2=Nc3cc(Cl)ccc3Nc3ccccc32)CC1` [Clozapine (Clozaril)] was -1.53.

The values are drawn from the supplement of paper PMC8813932.
